Source: patent US20160031967A1 (Affibody, published 2016)

Columns and labels:
[1] = biological target: T1, human FcRn (Biorbyt, cat. no. orb84388) (human, UniProt P55899 24-297; P61769 21-119, limits assumed); assay: ELISA titration of biotinylated human FcRn, pH 7.4
T1 construct: Bought protein; Biotinylated in AlphaLISA and ELISA; also called biotinylated human FcRn
Protocol: (§1) ELISA KD analysis of FcRn binding Z variants: A selection of FcRn binders was subjected to an analysis of the response against a dilution series of biotinylated human FcRn using ELISA at both pH 6.0 and pH 7.4 as described above. […] As a background control, all Z variants were also assayed with no target protein added. […] Data were analyzed using GraphPad Prism 5 and non-linear regression and KD values (the half maximal effective concentration) were calculated.
(§2) Periplasm samples were incubated with a serial dilution of biotinylated human FcRn.

[2] = biological target: T1, human FcRn (Biorbyt, cat. no. orb84388); assay: ELISA titration of biotinylated human FcRn, pH 6.0
Protocol: as §1, §2

T1 sequence (P55899 24-297 limits assumed, chain 1 of 2): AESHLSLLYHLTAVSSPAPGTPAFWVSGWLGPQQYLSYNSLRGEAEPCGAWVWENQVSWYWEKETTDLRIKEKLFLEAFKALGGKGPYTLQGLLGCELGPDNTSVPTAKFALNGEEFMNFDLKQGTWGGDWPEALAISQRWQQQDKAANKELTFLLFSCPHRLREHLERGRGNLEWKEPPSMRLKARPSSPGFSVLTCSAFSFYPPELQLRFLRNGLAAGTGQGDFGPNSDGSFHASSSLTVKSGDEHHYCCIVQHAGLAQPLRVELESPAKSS
T1 sequence (P61769 21-119 limits assumed, chain 2 of 2, further chain): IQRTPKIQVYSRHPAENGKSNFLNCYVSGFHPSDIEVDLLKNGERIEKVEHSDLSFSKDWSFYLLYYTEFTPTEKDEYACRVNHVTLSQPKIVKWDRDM

Row | Binder | Kd [1] | Kd [2]
1 | Z13720-ABD fusion (designed binder, domain: GA3; periplasmic Z-ABD fusion) AQHDEALEVDAKYAKEQSAAAHEIRWLPNLTFDQRVAFIHKLNDDPSQSSELLSEAKKLNDSQAPKVDYVLAEAKVLANRELDKYGVSDYYKNLINNAKTVEGVKALIDEILAALPYVPG | 450 nM | 2.5 nM
2 | Z13721-ABD fusion (designed binder, domain: GA3; periplasmic Z-ABD fusion) AQHDEALEVDAKYAKEKERAAHEIRWLPNLTFDQRVAFIHKLRDDPSQSSELLSEAKKLNDSQAPKVDYVLAEAKVLANRELDKYGVSDYYKNLINNAKTVEGVKALIDEILAALPYVPG | 2.9 nM | 1.9 nM
3 | Z13725-ABD fusion (designed binder, domain: GA3; periplasmic Z-ABD fusion) AQHDEALEVDAKYAKEWDEAAHEIRWLPNLTFDQRVAFIHKLKDDPSQSSELLSEAKKLNDSQAPKVDYVLAEAKVLANRELDKYGVSDYYKNLINNAKTVEGVKALIDEILAALPYVPG | 4.9 nM | 1.8 nM
4 | Z13728-ABD fusion (designed binder, domain: GA3; periplasmic Z-ABD fusion) AQHDEALEVDAKYAKEIENAAHEIRWLPNLTFDQRVAFIWKLRDDPSQSSELLSEAKKLNDSQAPKVDYVLAEAKVLANRELDKYGVSDYYKNLINNAKTVEGVKALIDEILAALPYVPG | 6.7 nM | 2.6 nM
5 | Z13736-ABD fusion (designed binder, domain: GA3; periplasmic Z-ABD fusion) AQHDEALEVDAKYAKEWAEAAHEIRWLPNLTFDQRVAFIHKLRDDPSQSSELLSEAKKLNDSQAPKVDYVLAEAKVLANRELDKYGVSDYYKNLINNAKTVEGVKALIDEILAALPYVPG | 3 nM | 1.7 nM
6 | Z13740-ABD fusion (designed binder, domain: GA3; periplasmic Z-ABD fusion) AQHDEALEVDAKYAKESQEAGHEIRWLPNLTFDQRVAFIHKLRDDPSQSSELLSEAKKLNDSQAPKVDYVLAEAKVLANRELDKYGVSDYYKNLINNAKTVEGVKALIDEILAALPYVPG | 5 nM | 2 nM
7 | Z13742-ABD fusion (designed binder, domain: GA3; periplasmic Z-ABD fusion) AQHDEALEVDAKYAKELSTAAHEIRWLPNLTFDQRVAFIHKLRDDPSQSSELLSEAKKLNDSQAPKVDYVLAEAKVLANRELDKYGVSDYYKNLINNAKTVEGVKALIDEILAALPYVPG | 7.6 nM | 2.4 nM
8 | Z13747-ABD fusion (designed binder, domain: GA3; periplasmic Z-ABD fusion) AQHDEALEVDAKYAKEIEEAGHEIRWLPNLTFDQRVAFIHKLRDDPSQSSELLSEAKKLNDSQAPKVDYVLAEAKVLANRELDKYGVSDYYKNLINNAKTVEGVKALIDEILAALPYVPG | 2.3 nM | 1.3 nM
9 | Z13749-ABD fusion (designed binder, domain: GA3; periplasmic Z-ABD fusion) AQHDEALEVDAKYAKELQTASHEIRWLPNLTFDQRVAFIHKLRDDPSQSSELLSEAKKLNDSQAPKVDYVLAEAKVLANRELDKYGVSDYYKNLINNAKTVEGVKALIDEILAALPYVPG | 12 nM | 2.8 nM
10 | Z13750-ABD fusion (designed binder, domain: GA3; periplasmic Z-ABD fusion) AQHDEALEVDAKYAKEQDSAAHEIRWLPNLTFDQRVAFIRKLRDDPSQSSELLSEAKKLNDSQAPKVDYVLAEAKVLANRELDKYGVSDYYKNLINNAKTVEGVKALIDEILAALPYVPG | 8.4 nM | 2.7 nM
11 | Z13751-ABD fusion (designed binder, domain: GA3; periplasmic Z-ABD fusion) AQHDEALEVDAKYAKESASAGHEIRWLPNLTFDQRVAFIHKLRDDPSQSSELLSEAKKLNDSQAPKVDYVLAEAKVLANRELDKYGVSDYYKNLINNAKTVEGVKALIDEILAALPYVPG | 3.8 nM | 2 nM
12 | Z13758-ABD fusion (designed binder, domain: GA3; periplasmic Z-ABD fusion) AQHDEALEVDAKYAKEVQEAAHEIRWLPNLTFDQRVAFIHKLWDDPSQSSELLSEAKKLNDSQAPKVDYVLAEAKVLANRELDKYGVSDYYKNLINNAKTVEGVKALIDEILAALPYVPG | 6.5 nM | 1.9 nM
13 | Z13773-ABD fusion (designed binder, domain: GA3; periplasmic Z-ABD fusion) AQHDEALEVDAKYAKEYVDAGHEIRWLPNLTFDQRVAFIRKLRDDPSQSSELLSEAKKLNDSQAPKVDYVLAEAKVLANRELDKYGVSDYYKNLINNAKTVEGVKALIDEILAALPYVPG | 4.9 nM | 2.5 nM
14 | Z13776-ABD fusion (designed binder, domain: GA3; periplasmic Z-ABD fusion) AQHDEALEVDAKYAKEIQEAGHEIRWLPNLTFDQRVAFIHKLRDDPSQSSELLSEAKKLNDSQAPKVDYVLAEAKVLANRELDKYGVSDYYKNLINNAKTVEGVKALIDEILAALPYVPG | 5.5 nM | 2.2 nM
15 | Z13777-ABD fusion (designed binder, domain: GA3; periplasmic Z-ABD fusion) AQHDEALEVDAKYAKESATAAHEIRWLPNLTFDQRVAFIHKLRDDPSQSSELLSEAKKLNDSQAPKVDYVLAEAKVLANRELDKYGVSDYYKNLINNAKTVEGVKALIDEILAALPYVPG | 4.6 nM | 2.4 nM
16 | Z13782-ABD fusion (designed binder, domain: GA3; periplasmic Z-ABD fusion) AQHDEALEVDAKYAKEREQASHEIRWLPNLTFDQRVAFIHKLRDDPSQSSELLSEAKKLNDSQAPKVDYVLAEAKVLANRELDKYGVSDYYKNLINNAKTVEGVKALIDEILAALPYVPG | 4.2 nM | 2.2 nM
17 | Z13792-ABD fusion (designed binder, domain: GA3; periplasmic Z-ABD fusion) AQHDEALEVDAKYAKEIEVAAHEIRWLPNLTFDQRVAFIHKLRDDPSQSSELLSEAKKLNDSQAPKVDYVLAEAKVLANRELDKYGVSDYYKNLINNAKTVEGVKALIDEILAALPYVPG | 2.9 nM | 2 nM
18 | Z13796-ABD fusion (designed binder, domain: GA3; periplasmic Z-ABD fusion) AQHDEALEVDAKYAKERAEAAHEIRWLPNLTFDQRVAFIHKLRDDPSQSSELLSEAKKLNDSQAPKVDYVLAEAKVLANRELDKYGVSDYYKNLINNAKTVEGVKALIDEILAALPYVPG | 4.2 nM | 2.3 nM
19 | Z13799-ABD fusion (designed binder, domain: GA3; periplasmic Z-ABD fusion) AQHDEALEVDAKYAKESELAAHEIRWLPNLTFDQRVAFIWKLRDDPSQSSELLSEAKKLNDSQAPKVDYVLAEAKVLANRELDKYGVSDYYKNLINNAKTVEGVKALIDEILAALPYVPG | 5.6 nM | 1.9 nM
20 | Z13808-ABD fusion (designed binder, domain: GA3; periplasmic Z-ABD fusion) AQHDEALEVDAKYAKETANAAHEIRWLPNLTFDQRVAFIHKLRDDPSQSSELLSEAKKLNDSQAPKVDYVLAEAKVLANRELDKYGVSDYYKNLINNAKTVEGVKALIDEILAALPYVPG | 5.5 nM | 2.4 nM
21 | Z13823-ABD fusion (designed binder, domain: GA3; periplasmic Z-ABD fusion) AQHDEALEVDAKYAKEHDDAAHEIRWLPNLTFDQRVAFIHKLRDDPSQSSELLSEAKKLNDSQAPKVDYVLAEAKVLANRELDKYGVSDYYKNLINNAKTVEGVKALIDEILAALPYVPG | 3.8 nM | 2.9 nM
22 | Z13824-ABD fusion (designed binder, domain: GA3; periplasmic Z-ABD fusion) AQHDEALEVDAKYAKEWYSAAHEIRWLPNLTFDQRVAFIHKLRDDPSQSSELLSEAKKLNDSQAPKVDYVLAEAKVLANRELDKYGVSDYYKNLINNAKTVEGVKALIDEILAALPYVPG | 3.8 nM | 1.9 nM
23 | Z13838-ABD fusion (designed binder, domain: GA3; periplasmic Z-ABD fusion) AQHDEALEVDAKYAKEISDAAHEIRWLPNLTFDQRVAFIHKLRDDPSQSSELLSEAKKLNDSQAPKVDYVLAEAKVLANRELDKYGVSDYYKNLINNAKTVEGVKALIDEILAALPYVPG | 5.4 nM | 2.6 nM
24 | Z13842-ABD fusion (designed binder, domain: GA3; periplasmic Z-ABD fusion) AQHDEALEVDAKYAKEISQAAHEIRWLPNLTFDQRVAFIHKLRDDPSQSSELLSEAKKLNDSQAPKVDYVLAEAKVLANRELDKYGVSDYYKNLINNAKTVEGVKALIDEILAALPYVPG | 5.5 nM | 2.2 nM
25 | Z13845-ABD fusion (designed binder, domain: GA3; periplasmic Z-ABD fusion) AQHDEALEVDAKYAKENDDAAHEIRWLPNLTFDQRVAFIHKLRDDPSQSSELLSEAKKLNDSQAPKVDYVLAEAKVLANRELDKYGVSDYYKNLINNAKTVEGVKALIDEILAALPYVPG | 4.2 nM | 2.6 nM
26 | Z13846-ABD fusion (designed binder, domain: GA3; periplasmic Z-ABD fusion) AQHDEALEVDAKYAKESEIAGHEIRWLPNLTFDQRVAFIRKLRDDPSQSSELLSEAKKLNDSQAPKVDYVLAEAKVLANRELDKYGVSDYYKNLINNAKTVEGVKALIDEILAALPYVPG | 4.3 nM | 2.3 nM
27 | Z13860-ABD fusion (designed binder, domain: GA3; periplasmic Z-ABD fusion) AQHDEALEVDAKYAKEISDAKHEIRWLPNLTFDQRVAFIHKLDDDPSQSSELLSEAKKLNDSQAPKVDYVLAEAKVLANRELDKYGVSDYYKNLINNAKTVEGVKALIDEILAALPYVPG | 8.7 nM | 2.3 nM
28 | Z13865-ABD fusion (designed binder, domain: GA3; periplasmic Z-ABD fusion) AQHDEALEVDAKYAKEHLNAAHEIRWLPNLTFDQRVAFIHKLRDDPSQSSELLSEAKKLNDSQAPKVDYVLAEAKVLANRELDKYGVSDYYKNLINNAKTVEGVKALIDEILAALPYVPG | 5.6 nM | 2.5 nM
29 | Z13866-ABD fusion (designed binder, domain: GA3; periplasmic Z-ABD fusion) AQHDEALEVDAKYAKEWLDAAHEIRWLPNLTFDQRVAFIHKLRDDPSQSSELLSEAKKLNDSQAPKVDYVLAEAKVLANRELDKYGVSDYYKNLINNAKTVEGVKALIDEILAALPYVPG | 2.8 nM | 2 nM
30 | Z13875-ABD fusion (designed binder, domain: GA3; periplasmic Z-ABD fusion) AQHDEALEVDAKYAKENAAAAHEIRWLPNLTFDQRVAFIHKLRDDPSQSSELLSEAKKLNDSQAPKVDYVLAEAKVLANRELDKYGVSDYYKNLINNAKTVEGVKALIDEILAALPYVPG | 3.4 nM | 2 nM
